# From PubChem BioAssay AID624417 (National Center for Advancing Translational Sciences (NCATS), 2012)
# The whole screen tested about 410,000 compounds, of which about 6,400 (1.6%) were called active. The inconclusive results got no clear call from the source; some entries with a clear call stand among them for comparison. Calls come from the whole dose curve; as a rule, active = well fitted inhibition curve with a large enough effect; inconclusive = small, poorly fitted or top-dose-only effect; inactive = no such curve, though single readings can be large or run the other way. No potency is given beside an inconclusive call; the fits are too rough.
# Molecular target: Glucagon-like peptide 1 receptor (Homo sapiens) (UniProt P43220)
# UniProt P43220, sequence (P43220 whole entry, looked up): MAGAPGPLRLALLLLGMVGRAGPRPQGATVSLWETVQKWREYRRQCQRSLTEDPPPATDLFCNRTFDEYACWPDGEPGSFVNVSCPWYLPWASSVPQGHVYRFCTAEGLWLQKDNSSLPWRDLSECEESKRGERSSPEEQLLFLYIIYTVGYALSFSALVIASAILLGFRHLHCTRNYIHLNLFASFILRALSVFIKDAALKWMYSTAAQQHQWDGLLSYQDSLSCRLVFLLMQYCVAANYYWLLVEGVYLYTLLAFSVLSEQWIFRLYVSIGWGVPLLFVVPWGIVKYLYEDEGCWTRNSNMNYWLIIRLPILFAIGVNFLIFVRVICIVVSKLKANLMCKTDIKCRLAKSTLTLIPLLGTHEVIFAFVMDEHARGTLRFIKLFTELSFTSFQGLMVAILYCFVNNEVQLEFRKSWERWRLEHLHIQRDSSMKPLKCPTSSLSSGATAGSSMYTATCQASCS
# Assay: qHTS of GLP-1 Receptor Inverse Agonists (Inhibition Mode); note: nearly all actives have a fitted effect of over 55% in size
# Settings: HEK293 GLP-1R CRE-luciferase, luminescence, 24 h, GLP-1R form is constitutively active; activity change, negative = inhibition: at 38.3 µM (top of the series) unless noted
# How it was run: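 Luminescence readout: a drop in cAMP-driven luciferase signal flags inverse agonism at a constitutively active GLP-1R stably expressed in HEK293. Compound exposure lasted 24 hr at 37 deg C, 5% CO2.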
# % is set by controls: 0 for no effect and ±100 for the full control effect; potency is the fitted concentration of half-maximal effect; tags give direction and shape of the fitted curve.
SMILES,Potency,"activity change, negative = inhibition"
CC1CCCCN1c1nc2nonc2nc1N1CCCCC1C (configuration not stated),"inconclusive [inhibitor, single point]",–
CCC(=O)Nc1ccc(Cl)c(NC(=O)c2c(OC)cccc2OC)c1,–,inactive: 0.335%
CC(C)(C)c1nc2scc(-c3cccs3)c2c(=O)o1,"inconclusive [inhibitor, single point]",–
COc1ccc(NC(=O)C(C2CC2)n2c(=O)c(-c3ccccc3)nc3ccccc32)cc1 (configuration not stated),"inconclusive [inhibitor, single point]",–
CN(Cc1ccccc1)C(=O)CCSc1nc(-c2ccc3c(c2)OCO3)cc(C(F)(F)F)n1,"inconclusive [inhibitor, partial curve, poor fit]",–
CCC1CN(C(=O)N2CCC(C(=O)NCc3ccc(C)o3)CC2)c2cc(C)ccc2O1 (configuration not stated),"inconclusive [inhibitor, single point]",–
O=C(Cn1cc(C(F)(F)F)ccc1=O)NC1CCCC1,–,inactive: 0.744%
CC(C)(C)c1cc2nc(NCc3cccc(Cl)c3)ccn2n1,"inconclusive [inhibitor, single point]",–
COc1ccccc1N1N=C(c2cccs2)CC1c1ccccc1 (configuration not stated),"inconclusive [inhibitor, partial curve, poor fit]",–
Cc1ccc(C(C(=O)NC(C)(C)C)N(CC2CCCO2)C(=O)Cn2nnc(-c3ccc(C)o3)n2)cc1 (configuration not stated),"inconclusive [inhibitor, single point]",–
CC1(C(=O)Nc2cccc(OC(F)(F)F)c2)Cc2c(-c3cccc(C(F)(F)F)c3)ccnc2O1 (configuration not stated),"inconclusive [inhibitor, single point]",–
COC(=O)c1scc(C)c1NC(=O)CSc1ccc(Cl)cc1,"inconclusive [inhibitor, single point]",–
Cc1ccc(N(C)S(=O)(=O)c2cccc(C(=O)OCC(=O)c3c(N)n(C)c(=O)n(C)c3=O)c2)cc1,"inconclusive [inhibitor, partial curve, poor fit]",–
Brc1ccc(-c2csc(NC3=NCCCCC3)n2)cc1,–,inactive: 3.05%
COc1cccc(/C=N\NC(=O)Cn2nnc3ccccc32)c1O,"inconclusive [inhibitor, single point]",–
Cc1ccc(C)c(N2CCN(C(=O)CN3C(=O)COc4ccc(S(=O)(=O)N5CCCCCC5)cc43)CC2)c1,"inconclusive [inhibitor, full curve, poor fit]",–
CCOC(=O)c1c(NC(=O)c2noc3c2CC(C(C)(C)C)CC3)sc2c1CCCC2 (configuration not stated),–,inactive: -26.5%
Cc1ccc(C)c(/C=N/NC(=S)NC(C)C)c1,"inconclusive [inhibitor, partial curve, poor fit]",–
CCCCOCCCNC(=O)C[C@@H]1C[C@@]2(C(=O)OCC)CCCC=C2N(Cc2cccc3ccccc23)C1=O,"inconclusive [inhibitor, single point]",–
Cc1cc(C)c(Cn2c(C)c(CNCCCc3ccccc3)c(C(=O)O)c2C)c(C)c1,–,inactive: -22.1%
CC(NC(=O)CCC(=O)c1ccccc1)c1ccc(F)cc1 (configuration not stated),"inconclusive [inhibitor, partial curve, poor fit]",–

SMILES,Potency,"activity change, negative = inhibition"
O=C(NCC(c1cccs1)S(=O)(=O)c1cccs1)c1ccccc1 (configuration not stated),–,inactive: -8.57%
COc1ccc(C2c3[nH]c4ccccc4c3C[C@H]3C(=O)N(C4CCN(Cc5ccccc5)CC4)CC(=O)N23)c(OC)c1 (some centres not stated),"inconclusive [inhibitor, partial curve, poor fit]",–
COc1ccccc1CCC(=O)Nc1cccc(S(=O)(=O)N2CCCC2)c1,"inconclusive [inhibitor, partial curve, poor fit]",–
COc1ccc(-c2n[nH]c(=S)n2Cc2ccccc2)cc1,–,inactive: -17.2%
COc1cccc(/C=N/NC(=S)Nc2cccc(S(=O)(=O)N(C)C)c2)c1,"inconclusive [inhibitor, partial curve, poor fit]",–
CCOC(=O)c1ccc(NC(=O)C2Cc3ccccc3CN2S(=O)(=O)c2ccc(Cl)cc2)cc1 (configuration not stated),"inconclusive [inhibitor, partial curve, poor fit]",–
CC1(c2ccc(Cl)cc2)NC(=S)N2C1NC(=S)N2c1ccccc1 (configuration not stated),"inconclusive [inhibitor, partial curve]",–
COc1ccc(Cl)cc1NS(=O)(=O)c1cc(-c2cc(C)no2)ccc1C,"inconclusive [inhibitor, full curve, poor fit]",–
COc1cccc(CN2CCCC(C(=O)c3ccc4c(c3)OCO4)C2)c1OC (configuration not stated),"inconclusive [inhibitor, single point]",–
COc1ccc(C2CC(c3ccc(OC)cc3)n3nc(NC(=O)c4ccco4)nc3N2)cc1 (configuration not stated),–,inactive: -19.1%
O=C(/C=C/c1cn(CC(O)CN2CCCCCC2)c2ccccc12)c1ccccc1 (configuration not stated),"inconclusive [inhibitor, single point]",–
CC(C)Oc1ccc(C(=O)Nc2ccccc2N2CCCC2)cc1,"inconclusive [inhibitor, partial curve, poor fit]",–
COc1cc(/C=C/c2nc(C#N)c(NC3CCCCC3)o2)cc(OC)c1OC,–,inactive: -28.1%
CCCOc1ccc(C(=O)Nc2ccc(N(C)C)cc2)cc1,"inconclusive [inhibitor, single point]",–
Cc1nnc(SC(C)C(=O)NC2CCCc3ccccc32)n1-c1ccccc1 (configuration not stated),"inconclusive [inhibitor, full curve, poor fit]",–
COc1ccccc1NC(=O)CSc1nc2c(oc3ccccc32)c(=O)n1-c1ccc(C)cc1,–,inactive: 12.5%
CC(C)(C)c1ccc(-c2nc(C=O)c3ccccn23)cc1,"inconclusive [inhibitor, partial curve]",–
O=C(CC12CC3CC(CC(Br)(C3)C1)C2)OCCN1CCCCC1,–,inactive: 48.6%
Cn1cc(CCC(=O)NC2CC(C)(C)Cc3c2cnn3-c2ccc(F)cc2)cn1 (configuration not stated),"inconclusive [inhibitor, partial curve]",–
COc1ccc(C(=O)NCCc2ccc(Cl)cc2)cc1S(=O)(=O)N1CCCCC1C (configuration not stated),"inconclusive [inhibitor, single point]",–
O=C(N/N=C/c1cccc(NC(=O)c2ccc(Cl)cc2)c1)c1cccc(O)c1,"inconclusive [inhibitor, partial curve, poor fit]",–

SMILES,Potency,"activity change, negative = inhibition"
CCCCCn1c(N2CCC(Cc3ccccc3)CC2)nc2c1c(=O)[nH]c(=O)n2C,"inconclusive [inhibitor, partial curve, poor fit]",–
Fc1ccc(NC(=S)NN=C2CCCCCC2)cc1,"inconclusive [inhibitor, single point]",–
CC(C)Oc1ccc(C2c3c(oc4ccccc4c3=O)C(=O)N2CCCN2CCOCC2)cc1 (configuration not stated),–,inactive: 5.37%
COc1ccc(CN2C(=O)C(NC(=O)c3ccc(C)cc3)(C(F)(F)F)N=C2c2ccccc2)cc1 (configuration not stated),"inconclusive [inhibitor, single point]",–
CC(=O)Nc1cc2c3c(cccc3c1)-c1ccccc1-2,"inconclusive [inhibitor, full curve, poor fit]",–
Cc1ccc(N2C(=O)c3cccc4c([N+](=O)[O-])ccc(c34)C2=O)c2cccnc12,"inconclusive [inhibitor, full curve, poor fit]",–
COc1ccc(CN(C)C(=O)c2cc(-c3ccc(C)cc3C)nc3ccccc23)c(OC)c1OC,"inconclusive [inhibitor, single point]",–
O=C(NCCc1csc(-c2cccnc2)n1)c1cccc(C(F)(F)F)c1,"inconclusive [inhibitor, single point]",–
Cc1occc1-c1nnc(SCC(=O)c2cc3ccccc3oc2=O)o1,–,inactive: -0.519%
CSc1ccc(CNC(=O)CCn2ccc3cc(S(=O)(=O)N4CCCC4)ccc32)cc1,"inconclusive [inhibitor, single point]",–
CC(C)c1ccc(NC(=O)CCNS(=O)(=O)c2ccc3[nH]c(=O)oc3c2)cc1,"inconclusive [inhibitor, single point]",–
O=C(CNC(=O)c1cccc(Br)c1)N/N=C/c1ccc2c(c1)OCO2,"inconclusive [inhibitor, single point]",–
COc1ccc(/C=C2\C(=O)c3ccccc3OC2c2ccccc2)cc1 (configuration not stated),"inconclusive [inhibitor, partial curve, poor fit]",–
CCC(C)n1ncn(-c2ccc(N3CCN(c4ccc(O)cc4)CC3)cc2)c1=O (configuration not stated),"inconclusive [inhibitor, full curve]",–
Cc1ccc(C)c(S(=O)(=O)N2CCCCC2CCNC(=O)C(=O)NCc2ccco2)c1 (configuration not stated),"inconclusive [inhibitor, partial curve, poor fit]",–
Cc1[nH]c(-c2ccc(F)cc2)cc1C(=O)N1CCN(c2ccccc2)CC1,"inconclusive [inhibitor, single point]",–
CCC(C)c1ccccc1NC(=O)CN(C)CC(=O)Nc1ccccc1SC (configuration not stated),"inconclusive [inhibitor, partial curve, poor fit]",–
COc1ccc(S(=O)(=O)c2c(O)c3ccc(C(=O)Nc4ccccc4Cl)cc3[nH]c2=O)cc1,–,inactive: 13.6%
CN(C(=O)CSC(=O)c1ccccc1)c1ccccc1,"inconclusive [inhibitor, single point]",–
CC(C)CC(=O)NC(=S)Nc1nc(-c2cccc3ccccc23)cs1,"inconclusive [inhibitor, partial curve, poor fit]",–
